In PubChem BioAssay AID1346378 (National Center for Advancing Translational Sciences (NCATS), 2018):
“And” between values parts separate entries of the source, which are not always exact repeats. Identical values can stand only once. The campaign covered roughly 420,000 compounds. About 540 (0.13%) were called active. Inconclusive results, whose numbers are uncertain, are shown with a selection of clear calls. Cut-off read from the data, not from the text of the source: active = activity change below about -50%; inconclusive = mostly about -30% to -49%; inactive = weaker than that.

What follows are compounds tested against Phosphatidylinositol 4-kinase type 2-alpha (Homo sapiens) (UniProt Q9BTU6) (assay: qHTS for small molecular inhibitors of PI4K2A). Details: purified PI4K2A, ADP-Glo luminescence, 1 h; at 76.9 µM, stronger effect = lower value.
Chain of UniProt Q9BTU6 (Q9BTU6 whole entry, looked up): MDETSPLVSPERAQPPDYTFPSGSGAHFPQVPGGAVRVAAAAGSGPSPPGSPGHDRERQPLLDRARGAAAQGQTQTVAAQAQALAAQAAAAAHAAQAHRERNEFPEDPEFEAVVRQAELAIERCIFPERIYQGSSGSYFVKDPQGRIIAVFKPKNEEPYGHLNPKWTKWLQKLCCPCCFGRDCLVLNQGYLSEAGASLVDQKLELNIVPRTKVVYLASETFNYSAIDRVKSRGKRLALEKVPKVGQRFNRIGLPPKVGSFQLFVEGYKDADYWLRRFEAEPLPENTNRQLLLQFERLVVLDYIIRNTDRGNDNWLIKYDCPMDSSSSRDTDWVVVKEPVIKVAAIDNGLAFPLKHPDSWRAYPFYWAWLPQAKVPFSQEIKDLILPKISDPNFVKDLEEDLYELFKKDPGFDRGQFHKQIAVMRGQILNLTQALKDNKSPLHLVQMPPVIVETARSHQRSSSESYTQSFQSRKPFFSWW
Summary of the method: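 In this quantitative HTS, ADP production by PI4K2A was quantified luminescently after 1 h at ambient temperature; 100 microM adenosine served as plate-quality control.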
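Throughout, for activity change, negative = inhibition: -100% = wells without enzyme as full effect.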

Compound | activity change, negative = inhibition
Cc1ccc2c(c1)c(=O)c1c3n2CCN(C(=O)CCl)C3CC1 (stereo not given) | inconclusive: -40.1%
CCc1cc(=O)oc2cc(C)c(CN3CCCC3)c(O)c12 | inconclusive: -47.2%
O=C(O)/C=C/C(=O)c1c(-c2ccccc2)[nH]c2ccccc12 | inconclusive: -36.1%
Clc1cccc(-c2nc(-c3ccccn3)no2)c1 | inconclusive: -30.1%
Cc1ccc(/C=N/Nc2nncn2N)cc1 | inconclusive: -41%
O=S(=O)(c1ccc(-c2ccon2)s1)N1CCN(c2ccccn2)CC1 | inactive: -2.15%
CC1CCCCC1NC(=O)COC(=O)c1c2c(nc3ccccc13)/C(=C\c1ccco1)CC2 (stereo not given) | active: -67.2%
NS(=O)(=O)c1ccc(CNC(=O)Cc2cccs2)cc1 | inconclusive: -32.9%
COc1cccc2c1C(=N)c1c(O)c3c(c(O)c1C2=O)CC(O)(C(C)=O)CC3OC1CC(N)C(O)C(C)O1 (stereo not given) | inconclusive: -35.7%
O=C(Nc1ccc(C(=O)N2CCCCC2)cc1)c1cccs1 | inconclusive: -39.5%
Cc1c([N+](=O)[O-])c(C(=O)Nc2ccc3c(c2)OCCO3)nn1C | inconclusive: -38.4%
Cn1c(CNC(=O)CSc2nc(-c3cccc(Cl)c3)nc3cc(=O)[nH]n23)nc2ccccc21 | inactive: -3.11%
O=S(=O)(c1ccc(Cl)c(F)c1)N1CCC(c2nc(-c3ccncc3)no2)CC1 | inactive: -1.28%
Cc1nnc(N/N=C\c2ccc(-c3cccc(C(=O)O)c3)o2)n1N | inconclusive: -43.2%
O=C(NCCc1ccc(Cl)cc1)C1COc2ccccc2O1 (stereo not given) | inactive: -1.8%
COc1ccc(NC(=O)c2sccc2SCc2cccc(C(F)(F)F)c2)cc1 | inactive: 0.0023%
O=C1C=CC(=O)c2c(O)c(CO)c(CO)c(O)c21 | active: -52.7%
CC(=O)NC(=S)Nc1sc2c(c1C#N)CCCCC2 | inconclusive: -48.2%
NC(=O)c1cc[n+](CC2=C(C(=O)O)N3C(=O)[C@@H](NC(=O)C(c4ccccc4)S(=O)(=O)[O-])[C@H]3SC2)cc1 (stereo not given in full) | inconclusive: -33%
C[N+]1(C)CCC(=C2c3ccccc3CC(=O)c3sccc32)CC1 | inconclusive: -32.7%
CC1=C(C(=O)Nc2ccccc2)C(c2ccc[nH]2)n2ncnc2N1 (stereo not given) | inconclusive: -35.5%
COc1cc(/C=N/n2c(-c3ccccc3)n[nH]c2=S)cc(OC)c1O | inactive: 7.36%
O=C(O)c1ccc(Oc2nc3ccccc3s2)cc1 | active: -60.7%

Compound | activity change, negative = inhibition
Cc1ccc(C(=O)Nc2sc3c(c2C(=O)O)CCCCC3)o1 | inconclusive: -38.5%
COc1cc(CN2CCN(Cc3ccc(C)cc3)C(CCO)C2)cc(OC)c1O (stereo not given) | inconclusive: -46.8%
COC(=O)C1=C(C(=O)OC)[C@@H]2N(C)c3ccccc3[C@@]23C[C@@H](CO)N(C(=O)c2cccs2)C3=N1 | inactive: 3.53%
Cc1cc(=O)n2[nH]c(-c3ccsc3-n3c(C)ccc3C)cc2n1 | inconclusive: -48.6%
N/C(=N\N=C\c1cccc(O)c1)c1nonc1N | inconclusive: -35%
Nc1ccc2c(c1Cl)C(=O)c1ccc(N)c(Cl)c1C2=O | inconclusive: -40.7%
c1ccc(Cn2c(SCC3CCCCC3)nnc2-c2cccnc2)cc1 | inactive: 0.576%
Nc1ncnc2oc(-c3ccco3)c(-c3ccco3)c12 | inconclusive: -32.8%
COc1c(Br)cc(C(N)=O)cc1OCc1ccccc1 | inactive: -0.0796%
c1c2c(cc3sc(N4CCOCC4)nc13)OCCO2 | active: -50.7%
Cc1cc(NC(=O)c2ccc(Br)o2)ccc1NC(=O)c1ccco1 | inconclusive: -31%
CCC1CCCCN1CCCNC(=O)c1ccc2c(c1)N(Cc1ccccc1F)C(=O)c1ccccc1S2(=O)=O (stereo not given) | inactive: 2.02%
CC(C)(C)c1ccc(-c2nnc(SCC(=O)Nc3ccc(S(=O)(=O)Nc4nccs4)cc3)n2Cc2ccco2)cc1 | active: -56.3%
CCCOc1ccc(-c2cn3ccccc3n2)cc1 | inconclusive: -49%
COc1ccccc1Cc1c(-c2ccco2)nc2c(C)cc(Br)cn12 | inconclusive: -30.3%
COc1cccc(Nc2nc(C(N)Cc3ccccc3)cs2)n1 (stereo not given) | inactive: -4.81%
C=CCn1c(SCC(=O)N(CC)C2CCS(=O)(=O)C2)nc2scc(-c3ccccc3)c2c1=O (stereo not given) | inactive: 5.35%
O=c1c(Br)c(Br)cnn1-c1ccccc1 | inactive: 3%
O=C(Oc1cccc(/C=N/Nc2nc(Nc3ccccc3)nc(N3CCOCC3)n2)c1)c1ccco1 | inactive: 2.04%
N#CC1=C2SCN(C3CCCCC3)CN2C(=O)CC1c1ccc(Br)cc1 (stereo not given) | inactive: -2.2%
Cc1oc(-c2ccc3c(c2)OCCO3)cc1C(=O)O | active: -74.6%
O=C(O)c1ccccc1-c1ccc(C=c2sc3nc4cc(Br)cnc4n3c2=O)o1 | inconclusive: -40.7%
O=C(/C=C/c1cccs1)N1CCc2ccccc21 | inconclusive: -31.1%

Compound | activity change, negative = inhibition
N#Cc1ccsc1NC(=O)COC(=O)C1=NNC(=O)CC1 | inconclusive: -33.7%
COc1cccc(N=Nc2ccc3cccnc3c2O)c1 | inconclusive: -42.1%
O=C1C=C(N2CCOCC2)c2ccccc2C1=O | active: -74.8%
O=C(COC(=O)c1ccc([N+](=O)[O-])o1)NCc1ccc2c(c1)OCO2 | inactive: -8.88%
O=C1/C(=C/c2cccs2)CCc2ccccc21 | inconclusive: -49.6%
Nc1ncnc2c1ncn2[C@@H]1O[C@H](C(=O)NCC2CCN(Cc3ccccc3)CC2)[C@@H](O)[C@H]1O | inconclusive: -31.9%
Cc1occc1C(=O)N/N=C/c1ccc(-c2ccccc2)cc1 | active: -77.9%
O=C(/C=C/Nc1ccc(Br)cc1F)c1ccco1 | inconclusive: -33%
CCOC(=O)c1ccc(NC(=O)CC2C(=O)N(c3cccc(OC)c3)C(=O)N2Cc2cccnc2)cc1 (stereo not given) | inconclusive: -38.6%
COc1ccc(Nc2nc3ccccc3n3cnnc23)cc1 | inconclusive: -38.3%
COC(=O)[C@@]1(Cc2ccc(OC)cc2)[C@H]2c3cc(C(=O)N4CCCC4)n(Cc4ccccc4)c3C[C@H]2CN1C(=O)c1ccccc1 | inactive: -3.69%
Cc1occc1C(=O)N/N=C/c1ccc(N(C)C)cc1 | active: -86.6%
O=C(NCCO)c1ccc2nc(-c3ccco3)c(-c3ccco3)nc2c1 | inconclusive: -32.7%
[Cl][In]([Cl])[Cl] | active
Cc1ccc(NC2=CC(=O)CC(c3ccco3)C2)c(N)c1 (stereo not given) | inconclusive: -41.6%
COC1=CC(=O)C=C(OC)C1=O | inactive: -6.79%
Cc1ccc(Cl)cc1NC1=C/C(=N\S(=O)(=O)c2cccs2)c2ccccc2C1=O | inconclusive: -44% and inconclusive: -30.8%
Cc1ccc(/C=C/c2nc3ccccc3s2)s1 | inconclusive: -34.3%
NC(=O)c1ccc[n+]([C@H]2O[C@@H](COP(=O)([O-])OP(=O)(O)OC[C@H]3O[C@@H](n4cnc5c(N)ncnc54)[C@H](O)[C@@H]3O)[C@H](O)[C@@H]2O)c1 | inconclusive: -37.3%
Cc1ccc(C)n1NC(=O)c1ccc(Cl)cc1Cl | inconclusive: -31.3%
CC1=NN(c2ccccc2)C(=O)/C1=C/c1cccs1 | inconclusive: -35.2%
O=C(N/N=C/c1sc(N2CCOCC2)nc1-c1ccccc1)c1ccccc1O | inactive: 0.23%
CCOc1cccc(/C=N/NC(=O)c2ccc3c(c2)OCCO3)c1O | inactive: -4.51%

Compound | activity change, negative = inhibition
COCCn1c(SCC(=O)Nc2cccc(C)c2C)nc2c(oc3ccccc32)c1=O | active: -66.3%
Cc1cc(-c2ccc(S(=O)(=O)Nc3cc(Cl)ccc3C)s2)on1 | inactive: 0.233%
CC(C)SCC(=O)Nc1ncc2c(n1)-c1ccccc1CC2 | inconclusive: -37.3%
COc1ccc(-c2ccc(SC)nn2)cc1 | active: -72.3%
CN1C(=O)CC(Nc2cccc3cccc(N)c23)C1=O (stereo not given) | inconclusive: -36.2%
Cc1cc(NC(=O)c2oc3c(c2C)-c2[nH]ncc2CC3)ccc1Br | inconclusive: -37.9%
CC1CCN(c2ccc(-c3cccs3)nn2)CC1 | active: -57%
COc1cc2c(cc1OC)C(=O)C(Br)CC2 (stereo not given) | inconclusive: -45.1%
COc1ccc(CCNC(=O)c2cc3c(s2)-c2c(C)cccc2OC3)c(OC)c1 | inactive: 1.62%
Cc1cc(C)cc(NC(=O)Cn2nnc(C(=O)NCc3ccccc3Cl)c2N)c1 | inconclusive: -31%
CCCCCC(=O)Nc1cc(S(=O)(=O)O)cc2cc(S(=O)(=O)O)cc(O)c12 | active: -59.1%
O=C(Nc1ccccc1N1CCN(C(=O)c2ccccc2)CC1)c1cc(Br)ccc1Cl | inactive: 0.991%
CC1(C)O[C@@H]2[C@H](O1)[C@@H](CO)O[C@H]2n1cnc2c(N)ncnc21 | active: -52.3%
Cc1ccc2oc3nc(C)c(C(=O)O)cc3c(=O)c2c1 | inconclusive: -47.1%
CCOC(=O)c1ccc(NC(=O)CC2Sc3ncnn3C2=O)cc1 (stereo not given) | inactive: -5.32%
CC1OC(CC(=O)O)CC2=C1C(=O)c1c(O)cccc1C2=O (stereo not given) | active: -59.3%
CCOC(=O)Cc1nnc(NC(=O)c2ncn[nH]2)s1 | inactive: -9.33%
N#C/C(=C\c1ccc(O)c(O)c1)C(=O)Nc1cccc2ncccc12 | inconclusive: -33.7%
COC(=O)c1nn(-c2ccc3c(c2)CCN3C(C)=O)cc1O | active: -85.2%
O=Nc1ccc(NOC(=O)c2ccccc2)cc1 | inconclusive: -46.5%
O=c1[nH]c(Nc2ccccn2)cc2ccccc12 | inconclusive: -34.8%
